The full ranking holds about 16,000 sequences; the median of “Z-score” is about -0.37, and the highest 2% start at about 3.1. This is one part of the list.
tested on: RBM10 RRM1-ZnF-RRM2 (GST-tagged construct); experiment: RNAcompete 7-mer binding Z-score; higher = stronger binding preference
How it was run: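 GST-tagged RBM10 constructs (20 pmol) and a designed pool of 241 399 RNAs up to 41 nt (1.5 nmol) were allowed to bind for 30 min at 4°C in 1 ml Hepes pH 7.8 buffer with glutathione Sepharose beads. After four 2-min washes at 4°C, bound RNA was identified by microarray hybridisation. Enrichment was scored per heptamer motif as a one-sided Z-score across the probes containing it.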

Sequence | RNAcompete 7-mer binding Z-score
GGUUUUG | 1.21
CGCAAAG | -0.22
CACUUUU | -0.927
GUCACCA | -0.347
UAGGUGU | 1.68
AAGCCCA | -0.741
CAGAUAC | -0.471
CGAACGC | -0.256
GGUCAGG | 1.99
AAUUGCU | -0.38
CGGCUUA | -0.522
CGUCCCA | -0.741
UACUCCU | -0.814
AAGUACU | -0.595
AAACGGU | 1.03
UGGGGAU | 3.05
CGUCGAG | 0.0896
CCACUGA | -0.624
CAUAACG | -0.231
ACAACGU | -0.165
UCCUAAG | -0.657
CGGUAGA | 1.01
CCGCCCA | -0.744
GCUAUUC | -0.595
GGAAUUG | 1.9

Sequence | RNAcompete 7-mer binding Z-score
AGGAUUC | -0.0816
GACUUUA | -0.77
AGAGGCA | 0.421
CCUCGGG | 0.0932
GCUUCUU | -0.817
CCCUUGG | -0.475
AGACGGG | 1.4
UGUUGGU | 0.472
GCAAGUC | -0.326
AUUGGUA | 1.05
AACUCAC | -0.715
UUGUGGU | 0.468
GAGGUAU | 1.88
GGCGGAA | 2.01
UCUGACC | -0.806
GCUUAAC | -0.511
CUCGCGA | -0.861
ACUAUAU | -0.544
ACUAGCU | -0.755
AACCUGC | -0.897
GUAAGAA | 0.548
UGGCGUC | 0.148
AGCUCGC | -0.519
GUGCGUC | -0.00877
GCUAUAA | -0.42

Sequence | RNAcompete 7-mer binding Z-score
CGCGGGA | 1.16
UCUAUGG | -0.402
AUCUUAC | -0.748
ACACCCA | -0.675
CGAGACG | 0.301
AGUCUAU | -0.398
AGGUUGA | 1.3
UGCCAAU | -0.453
CGAUUCA | -0.617
UCGUGAU | -0.49
AAGCAGU | 0.0677
CGGCCGA | -0.562
AAAACAG | 0.243
CAAUGCG | 0.381
ACUUGAA | -0.653
ACAGUGU | 0.119
CGCAGCA | -0.195
CCACUUA | -0.985
CCCUGAA | -0.628
ACGUACU | -0.69
GGCGAUC | 0.654
ACGGGCC | 0.297
AGUGGAA | 3.21
CCAACUC | -0.927
AGUUGAA | 0.578

Sequence | RNAcompete 7-mer binding Z-score
UCCUUCC | -0.657
UUGAUCC | -0.715
CCAUCGU | -0.686
UCGCUUC | -0.741
GCGAAUU | -0.111
UCAGCAG | -0.158
CCCCUAU | -0.85
ACUCUAA | -0.686
ACGAAGC | 0.0786
AAGAAGA | 1.03
GAAGAAC | 0.133
AGAGGUU | 0.865
CCCGUAC | -0.679
CGAAAUG | 0.0641
UCAGUUC | -0.748
UGCAUUG | -0.46
UUCGGUG | 0.0386
GUCUAUA | -0.479
CGAUGUC | -0.704
GUGAGAG | 1.85
UGGUAUA | 0.858
UCAAUGG | 1.28
CACUAUU | -0.872
AAUGUCG | -0.173
CUCCUUC | -0.846

Sequence | RNAcompete 7-mer binding Z-score
AGACUCA | -0.978
UCUGCGC | -0.821
UGGCACU | 0.075
AUCACUA | -0.639
CUAUUGC | -0.828
GAAGAGU | 1.26
UACAAAU | -0.49
GUCUUAA | -0.599
CAGUGUG | 0.57
UCAGGUC | 0.0604
CAAACAG | 0.00944
CACCUAA | -0.828
AUACACU | -0.391
GCAGAAG | 1.47
UUUAAGA | -0.413
GGUUAGU | 1.6
AUUCUCG | -0.686
ACUGCGU | -0.508
AUAUGCU | -0.657
GUCACAU | -0.457
AUAGUCA | -0.333
CCUUUCC | -0.887
GGGGAGC | 2.12
ACAGAGC | 0.188
CCAAAAG | -0.275

Sequence | RNAcompete 7-mer binding Z-score
UAGACCA | -0.409
UAGCAAG | 0.217
GAUCCCG | -0.726
UGCUUUG | -0.697
UCCUGAA | -0.766
UGAUUCG | -0.475
AUUUACC | -0.901
AUAGUAG | 0.687
UCUUAUA | -0.821
UCCCCAC | -0.617
AGCGGCC | -0.304
CUCCACU | -0.894
AUCCUUG | -0.821
GAAAAUA | -0.00877
GACAUCU | -0.737
GUUGUCU | -0.708
UGCGCGG | 0.545
AGAAGGC | 1.17
UCCGGAC | -0.602
GAGAAAG | 1.62
CGAGAAU | 0.17
ACUAUUC | -0.905
AUCUAGG | 0.199
GGCCCUG | -0.497
UGCUUAC | -0.679

Sequence | RNAcompete 7-mer binding Z-score
GACAUUA | -0.329
AGAGUGU | 0.465
CGACACG | 0.024
GUCCCAU | -0.522
GGAGGCC | 1.01
UAAAUUG | -0.337
ACCCCCU | -0.755
AUGUUUC | -0.493
GCGUACU | -0.322
CCCCCAC | -0.282
AGUACUU | -0.624
CGGCGGU | 0.931
ACAGGCC | 0.159
CUUACUC | -0.81
GCGAAGG | 2.16
CCACCCG | -0.584
CCCAGAU | -0.77
GCACUAG | -0.0161
GGGGUUU | 2.36
AGCAGAC | 0.13
AGUUAAU | -0.18
GUCUGGA | -0.147
AACCACU | -0.661
UAAGUUC | -0.475
CAGCGUG | 0.581

Sequence | RNAcompete 7-mer binding Z-score
UCCGCAA | -0.755
AGUGGUA | 1.92
CCGUGCA | -0.493
GAGGGUG | 3.5
UUGAGUG | 0.603
GGCAGUC | 0.181
CCAGAAA | -0.694
CGCUAUC | -0.77
AGUUCCG | -0.519
CUCCACA | -0.613
GUGAAAC | 0.217
CCCAUAC | -0.755
UGGAAGA | 2.18
UAGGGCG | 2.77
UAGUAGC | -0.0998
AGAUACC | -0.836
GUGUGCC | -0.0197
GGACGGU | 2.15
CAUCCAA | -0.639
UUCCUAU | -0.908
UGAUCCU | -0.799
UGUUAAA | -0.544
GGUUAGG | 4.22
UAUUUUG | -0.734
GCCGGAA | 0.439

Sequence | RNAcompete 7-mer binding Z-score
GAAGCUU | -0.475
AGAACGA | -0.0561
UAGGCAG | 1.68
AUUCGGG | 0.956
CCUGGAA | -0.479
CCCCGGA | -0.446
GUGGAAG | 3.47
CAAGCAG | 0.173
CCAACCC | -0.817
GAGCCCG | -0.715
UUUUCGC | -0.941
CCUAGGU | -0.0707
ACUGAGA | -0.0525
CGCGACA | -0.409
GCAUGCG | 0.024
ACUCUUC | -0.912
UAUCCCU | -0.817
AUCUGGC | -0.599
AUAUUCU | -0.635
UUAAAAG | -0.184
GGAUACG | 1.98
AAAUGUU | -0.409
UAACCAG | 0.0532
GUCAGAU | -0.078
CCGUCCG | -0.723

Sequence | RNAcompete 7-mer binding Z-score
CCCGAAC | -0.73
GCAUACA | -0.198
AUCUCCC | -0.897
UGGCAUG | 0.793
UUGGCAC | -0.184
GUUGUUA | -0.216
UCUGCGG | -0.253
AGCCGGA | 0.108
UAUCCAG | -0.282
AACGCGC | -0.307
AAGCGAG | 1.56
UCCCGAC | -0.77
CCCGUUC | -0.839
AGUUUGA | -0.337
GCUAUCC | -0.788
GGUGUCA | 1.07
GCAGUCA | -0.213
UCAUGCC | -0.879
CGAGAUG | 0.53
UACGAGG | 1.03
CCGCCUG | -0.876
ACUUUGA | -0.865
AUGCAGC | 0.104
CGAUUGG | 0.825
AUCCAAA | -0.602

Sequence | RNAcompete 7-mer binding Z-score
CGCCCAA | -0.927
ACCUAGA | -0.559
GGUAUCU | -0.216
CGCGUUG | -0.326
CGGCCUG | -0.344
AAGUCCU | -0.686
AGCUGUG | 0.155
GCAAUGC | 0.0677
AGGUAGG | 3.72
ACUCCUC | -0.814
AUGGAGC | 1.3
CAUAAGG | 0.548
AGAUCCA | -0.697
UUUGAUC | -0.719
UCGUGAG | 0.144
ACUGUAA | -0.398
AGCCGAG | -0.278
AACAGUG | 0.654
AGUGAUU | 0.166
UAUAAAA | -0.435
AUAGAGA | 0.501
CAAGGCA | 1.01
GCUCAGC | -0.577
CAUACGC | -0.573
UGGACGG | 3

Sequence | RNAcompete 7-mer binding Z-score
CUUGACU | -0.959
ACCCACU | -0.744
CGCGGUA | 0.29
AGCACUC | -0.846
UAUCGGA | 0.104
UUAAUCU | -0.744
CGUUAAG | -0.293
UAAAGAC | -0.384
CACCUGG | -0.282
GCAGGCU | 0.461
UUCAUUC | -0.606
UGCUCCA | -0.679
GGCCACG | 0.0932
GGACAGA | 1.44
CCGCCGA | -0.69
CGGUGGU | 1.62
CGCAUGA | -0.122
UUUUCCC | -0.832
GUGCGAU | 0.0641
CUGCUCA | -0.766
GCCCUGG | -0.366
GGUCGUC | 0.341
CUUAGCC | -0.865
AUGCUCG | -0.588
CUGGAAU | -0.205

Sequence | RNAcompete 7-mer binding Z-score
CACUGGA | -0.0634
UGUAGAU | 0.235
CAGAUUG | -0.162
UCCUUCA | -0.788
AACAGCG | 0.625
GCUAUAU | -0.57
GUUAUUU | -0.541
AGCAUCU | -0.755
GUAACGA | 0.352
UGAAGUA | 0.0823
GUGAGUU | 0.603
UCCGUAC | -0.61
UUCUCCU | -0.846
AUAACCA | -0.326
UGGUACA | 0.949
CUGGGUG | 1.82
GUCGAAU | -0.078
AACGCAA | -0.169
CACAGCA | -0.366
UCUUACU | -0.814
CAAGCAC | -0.566
UGUUCAU | -0.555
CCACAGA | -0.373
UCGGACC | -0.493
GCCUCAG | -0.719

Sequence | RNAcompete 7-mer binding Z-score
CGCGGAC | -0.00148
CCCAGAC | -0.792
AUCGCUG | -0.617
UCAACCU | -0.774
UGCCCCG | -0.413
UCACGUG | -0.289
UGGCUAC | 0.108
UGCUUCA | -0.81
CUUAGAC | -0.723
UUGCGGU | -0.0161
CUAGUCC | -0.763
UUAAGGG | 1.55
CACUCCC | -0.781
UUCGUUC | -0.741
CUUCAAC | -0.759
UGCAUAG | 0.0204
AUGGGUA | 3.71
UUCCUCC | -0.883
CUCAGGG | 0.592
AUGCGCC | -0.511
UACCGAA | -0.428
CCCAUUU | -1.1
CUCUAUA | -0.77
CAUAUGA | -0.18
GUUCACC | -0.697

Sequence | RNAcompete 7-mer binding Z-score
CCUGAUA | -0.854
GUGUAAC | 0.661
GAGGUAG | 2.99
CUCUUGA | -0.854
GUAUGUU | -0.202
GAUCCAG | 0.0641
GCCUCUA | -0.887
UGCGCAC | -0.351
CAGAGCC | -0.562
CACCACU | -0.668
UAGUCCA | -0.683
GCCUUAA | -0.861
CUGCUCG | -0.861
AUACCCG | -0.493
ACCAGCU | -0.905
ACUAACC | -0.766
UAACUAG | -0.366
